Reference: ChEMBL document CHEMBL1157539, “Thousands of chemical starting points for antimalarial lead identification” (Nature, 2010)
Over roughly 13,000 compounds, “IFI” has its median near 4; the highest 2% begin near 17. Some of the results follow.

Experiment: GSK_TCMDC: Inhibition Frequency Index (IFI). The number of non-kinase HTS assays where a compound showed > 50 % inhibition, expressed as a percentage of the number of such assays in which the compound was tested (-0 is zero)
Type: functional

| SMILES | IFI |
| --- | --- |
| COCCNCc1ccc(-c2ccc3c(Nc4ccc(F)cc4Cl)ccnc3c2)o1 | 11.6% |
| COc1ccc(NC(=O)N2CCc3ccc(OCCN(C(C)C)C(C)C)cc32)cc1C(F)(F)F | 1.46% |
| FC(F)(F)c1ccc2[nH]c(-c3ccc(-c4ccc(CNCc5ccccc5)cc4)cc3)nc2c1 | 14.4% |
| COc1cccc(NC(=O)NC2CCN(c3ccnc(Nc4cc(OC)c(OC)c(OC)c4)n3)C2)c1 (stereo unspecified) | 6.06% |
| COc1cc(CN2CCC(NC(=O)[C@H](Cc3ccccc3)NC(=O)Nc3ccc(Oc4ccccc4)cc3)C2)ccc1O (stereo partly specified) | 3.82% |
| Cc1noc(C)c1-c1cccc(CNCc2cccc(-c3ccc(-c4nc5cccc(C)c5[nH]4)s3)c2)c1 | 4.72% |
| Cc1cccc2nc(-c3cccc(-c4ccc(NC(=O)c5cccnc5)cc4)c3)[nH]c12 | 7.27% |
| Cc1cc(N[C@@H](CC(C)C)C(=O)NCCOc2ccccc2)nc(Nc2ccccc2)n1 | 4.65% |
| Cc1nc2nc(N)nc(N)c2c(C)c1Cc1cccs1 | 1.46% |
| Cc1ccc2c(c1)C1(CC(=O)N(CCc3scnc3C)C1=O)C(=O)N2Cc1ccccc1 (stereo unspecified) | 0.83% |
| OC1CCC(Nc2ccc3ncc(-c4ccc5ccccc5c4)n3n2)CC1 (stereo unspecified) | 5.97% |
| NCc1ccc(-c2cccc(CNC3CCN(Cc4ccccc4)CC3)c2)cc1 | 3.6% |
| COc1cc(Nc2ncc3c(C)nc(-c4cccc(Nc5ccc(CN6CCS(=O)(=O)CC6)cc5)c4)n3n2)cc(OC)c1OC | 4.9% |
| O=C(N/C(=C/c1cccc([N+](=O)[O-])c1)c1nc2ccccc2[nH]1)c1cccc(Br)c1 | 0.72% |
| COc1ccc2c(CNCCCCCCNCc3c(OC)ccc4cc(OC)ccc34)c(OC)ccc2c1 | 7.38% |
| CN(CCCCNC(=O)c1ccc(-c2ccccc2)cc1)C1CCc2c(O)cccc2C1 (stereo unspecified) | 9.56% |
| Cc1noc(-c2ccc3c(c2)CCN(CCC2CCC(NC(=O)/C=C/c4cccc(Cl)c4)CC2)CC3)n1 (stereo unspecified) | 2.13% |
| CCOc1ccc2ccccc2c1C(=O)Nc1cc(C)nn1-c1nc(C)cc(=O)[nH]1 | 13% |
| COc1ccc(CCNC(=O)c2cc3c(=O)n4cccc(C)c4nc3n(C)c2=N)cc1 | 1.67% |
| O=C(NCC1CCC(C(=O)NCc2cccc3ccccc23)CC1)c1ccc(O)c(-c2ccc(Cl)c(Cl)c2)c1 (stereo unspecified) | 0.76% |
| COc1cc(NC(=O)c2cc([N+](=O)[O-])ccc2NC(=O)CNC2CCCCC2C)cc(OC)c1 (stereo unspecified) | 3.7% |
| O=C(/C=C/c1ccc(Cl)cc1)NCCCCCN1CCCN(C(=O)Nc2ccc(Cl)c(C(F)(F)F)c2)CC1 | 14.3% |

| SMILES | IFI |
| --- | --- |
| COc1ccc(-c2cccc(NC(=O)c3cccc(Cl)c3)c2)cc1CN1CCC(O)CC1 | 4.95% |
| CC[C@H](C)CNC(=O)c1cncc(-c2ccc(CNCC3CNCCCO3)cc2)c1 (stereo partly specified) | 0% |
| COc1cccc(C2CCCN(CCCCNC(=O)c3ccc(NC(=O)c4ccc(Cl)cc4)cc3)C2)c1 (stereo unspecified) | 6.36% |
| O=C(Nc1ccc2c(c1)CCN(C1CCC1)CC2)c1ccc(-c2cn3ccccc3n2)cc1 | 2.86% |
| COc1c(C2CCN(CCN3CCC(CNC(=O)c4ccc(-c5ccc(C#N)cc5)cc4)CC3)CC2)ccc2c1CCCC2 | 16.2% |
| CCCN(CCC)C(=O)c1cc(C(=O)N[C@@H](Cc2ccccc2)[C@H](O)CNCc2cccc(C(F)(F)F)c2)cc(N2CCCCS2(=O)=O)c1 | 2.19% |
| CC(C)n1cc(CN2CCCC(C(=O)Nc3cccc(-c4cc5ccccc5[nH]4)c3)C2)cn1 (stereo unspecified) | 9.3% |
| COc1ccc(NC(=O)/C=C/c2cc(Br)ccc2F)cc1OCCN(C(C)C)C(C)C | 2.34% |
| Oc1ccc2ccccc2c1CNC1CCCCCC1 | 1.49% |
| O=C(Nc1ccc(Cl)c(Cl)c1)Nc1ccc2nccc(N3CCNCC3)c2c1 | 8.21% |
| c1ccc(CN2CCC(NCc3ccccc3-c3ccc(CNC4CCCC4)cc3)CC2)cc1 | 5.84% |
| CC(=O)Nc1cccc(-c2cn(-c3ccc(OCc4cccc(F)c4)c(Cl)c3)c3ncncc23)c1 | 1.42% |
| Cc1nc(-c2cccc(C(=O)N(Cc3cncn3Cc3cccc(C(F)(F)F)c3)CC3CC3)c2)cs1 | 9.21% |
| c1cc(CNCCc2ccncc2)cc(-c2ccc(-c3nc4ccccc4[nH]3)cc2)c1 | 9.9% |
| CCOCCCn1c(=N)c(C(=O)NCc2ccc(F)cc2)cc2c(=O)n3cccc(C)c3nc21 | 2.17% |
| CC(NC(=O)c1ccc(O)c(-c2ccc(Cl)c(Cl)c2)c1)C(=O)NCCN1CCCCC1 (stereo unspecified) | 1.48% |
| CS(=O)(=O)c1ccccc1CNC(=O)c1ccc(-c2ccc(-c3nc4cc(C(F)(F)F)ccc4[nH]3)s2)cc1 | 5.71% |
| COc1cccc(C(=O)N2CCOC(CCN3CCC(c4ccccc4)CC3)(c3ccc(Cl)c(Cl)c3)C2)c1 (stereo unspecified) | 5.48% |
| CS(=O)(=O)NCCCNCc1cccc(-c2csc(-c3nc4ccccc4[nH]3)c2)c1 | 2% |
| COc1ccc2nccc(N3CCC(NCCNCc4cc5c(cn4)OCCO5)C3)c2n1 (stereo unspecified) | -0% |
| COc1ccc(C(=O)Nc2cc(Cl)c3c(c2)C2CCCN2CC3)cc1C(F)(F)F (stereo unspecified) | 7.19% |
| Cc1cc(N[C@@H](C)C(=O)Nc2ccccc2)nc(NCCc2ccc(F)cc2)n1 | 4.55% |

| SMILES | IFI |
| --- | --- |
| C=CCOC(=O)N1CCC(CNCc2cccc(-c3ccc(-c4nc5cc(C(F)(F)F)ccc5[nH]4)cc3)c2)C1 (stereo unspecified) | 9% |
| CCNc1cc(C(=O)N[C@@H](Cc2ccccc2)[C@H](O)CNC(C)C)cc(N2CC(c3ccccc3)CCS2(=O)=O)c1 (stereo partly specified) | 0.74% |
| Cc1cc2nc(-c3ccc(C(=O)NCc4cccc(F)c4)cc3)[nH]c2cc1C | 0.76% |
| N=C(N)NN=Cc1c2ccccc2c(Cl)c2cc(Cl)ccc12 | 5.67% |
| COc1ccc(CNC2CCN(C)CC2)cc1-c1ccc(S(=O)(=O)NCC2CCCO2)s1 (stereo unspecified) | 1.98% |
| COc1ccc2[nH]c(C)cc(=NN=Cc3cc(OC)c(OC)cc3OC)c2c1 | 1.33% |
| C(=Cc1ccccc1)C=NN=c1cc[nH]c2ccccc12 | 2.1% |
| CCOc1cc(C(=O)N[C@@H](Cc2ccccc2)[C@H](O)CNCc2cc(OC)cc(OC)c2)cc(N2CCCCS2(=O)=O)c1 | 5.97% |
| CN1CCN(c2nc(NCCNc3ccc([N+](=O)[O-])cc3)c3ccccc3n2)CC1 | 8.93% |
| CN(C)CCCOc1ccc(CNCc2cccc(Oc3ccc(Cl)cc3)c2)cc1 | 9.33% |
| CC(C)COc1ccc2ccccc2c1CNCCCCCCNCc1c(OCC(C)C)ccc2ccccc12 | 22.9% |
| CC(C)COc1ccc(Cl)cc1Cc1ccc(-c2nc3ccc(Cl)cc3[nH]2)o1 | 19.1% |
| CN(C)c1ccc(C(c2ccc(N(C)C)cc2)c2cc([N+](=O)[O-])ccc2Cl)cc1 | 1.47% |
| CCCN(Cc1nnc(-c2cccs2)o1)C(=O)CSc1nnnn1-c1cc(C)cc(C)c1 | 4.23% |
| CN(C)CCCOc1ccc(CN2CC[C@H](NC(=O)c3ccc(Cl)c(Cl)c3)C2)c2ccccc12 | 8% |
| COc1cc(Br)c(NC(=O)Nc2ccc(C(F)(F)F)c(O[C@@H]3CCN(C)C3)c2)cc1OC | 3.08% |
| CS(=O)(=O)c1ccc(CCNCc2ccc(-c3ccc(CN(C(=O)c4ccco4)C4CCN(Cc5ccccc5)CC4)cc3)nc2)cc1 | 5.63% |
| COc1ccc(N2CCN(CCCCNC(=O)c3ccc(NC(=O)c4cccc(Cl)c4)cc3)CC2)c(OC)c1 | 3.57% |
| CC[C@H](NC(=O)c1c(CN2CCC(N3CCCCC3)CC2)c(-c2ccccc2)nc2cc(O)ccc12)c1ccccc1 | 1.43% |
| Cc1nc2c(c(C)nn2C(C)(C)C)c(C)c1CCC(=O)Nc1ccc(CN2CCCC2)cc1 | 2.83% |
| NC(=O)C1Cc2ccccc2CN1CC(=O)Nc1ccccc1Sc1ccccc1 (stereo unspecified) | -0% |
| Brc1cc2c(cc1C=NNc1nc(=Nc3ccccc3)[nH]c(=Nc3ccccc3)[nH]1)OCO2 | 2.21% |

| SMILES | IFI |
| --- | --- |
| COc1cc(C(=O)N2CCOC(CCN3CCc4c(c5ccccc5n4C)C3)(c3ccc(Cl)c(Cl)c3)C2)cc(OC)c1OC (stereo unspecified) | 8.16% |
| CC(C)Sc1ccc(Cl)cc1CON1C(=N)N=C(N)NC1(C)C | 7.52% |
| Cc1cc(=NN=Cc2cccc(Cl)c2)c2cc(F)ccc2[nH]1 | -0% |
| COc1cc(OCCCCCCON2C(=N)N=C(N)NC2(C)C)cc(OC)c1OC | 5.04% |
| CCCC(C)Nc1nc(C)cc(N[C@@H](CC(C)C)C(=O)NCc2ccc(C)cc2)n1 (stereo partly specified) | 17.1% |
| Cc1cccc2nc(-c3cccc(-c4ccc(NC(=O)C(C)CN5CCN(C)CC5)cc4)c3)[nH]c12 (stereo unspecified) | 2.75% |
| COc1ccc2nc(C)cc(Nc3ccc(Oc4ccc5ccccc5c4)c(Cl)c3)c2c1 | 5.93% |
| COc1ccc2nccc([C@H](O)CN3CCC(NCc4nc5cccc(F)c5[nH]4)CC3)c2c1 | 2.27% |
| COc1cc(-c2cc3cc(Cl)c(Cl)cc3[nH]2)ccc1C(=O)NCCC1CCCN1C (stereo unspecified) | 4.96% |
| O=C(NC1CCN(c2ccc(F)cc2[N+](=O)[O-])CC1)c1cccs1 | -0% |
| COc1cc(F)c2ncc(Cl)c(CCN3CCC(NCc4ccc5c(n4)NC(=O)CS5)CC3)c2c1 | 5.04% |
| COc1cccc2cc(C(=O)N[C@@H](CC(C)C)C(=O)NC(/C=N/NC(=O)c3ccccc3)CCc3ccccc3)oc12 (stereo partly specified) | 5.36% |
| CCC(CC)(Cc1ccccc1)NC(=O)[C@H](Cc1ccc(OC)c(OC)c1)Nc1ccc(C#N)c2ccccc12 | 0.94% |
| CC(C)C[C@H](NC(=O)c1cccc(F)c1)C(=O)N[C@H](/C=N/NC(=O)c1ccccc1)CCc1ccccc1 | 5.41% |
| O=C(/C=C/c1ccc(Cl)c(Cl)c1)N1CCN(C(=O)Nc2ccc(F)c(Cl)c2)CC1 | 15.2% |
| O=c1c2c([nH]c3cc(Cl)ccc13)CCCC2 | 0% |
| O=S(=O)(Nc1cccc(CCN2CCC(N3CCCCC3)CC2)c1)c1ccc(Oc2ccccc2)nc1 | 1.59% |
| O=C(NC1CCC(N2CCC(c3nc4ccccc4s3)CC2)CC1)c1cc2ccccc2[nH]1 (stereo unspecified) | 5.88% |
| CCCOc1cc(O)c(-c2[nH]nc(C)c2Oc2ccccc2)cc1CC | 2.96% |
| CCOc1cc2c(cc1OCC)C(c1ccc(O)c(Cl)c1)NCC2 (stereo unspecified) | 2.25% |
